# Laboratory results taken from PubChem BioAssay AID588342 (National Center for Advancing Translational Sciences (NCATS), 2011).
# Hit rate of the full screen: of about 360,000 compounds, about 25,000 (6.9%) were called active. Inconclusive results, whose numbers are uncertain, are shown with a selection of clear calls. Calls follow the shape of the dose curve; as a rule, active = well fitted inhibition curve with a large enough effect; inconclusive = small, poorly fitted or top-dose-only effect; inactive = flat fitted curve, though single readings scatter. A potency beside an inconclusive call is a rough fit, not a confirmed value.
# Target: Luciferin 4-monooxygenase (Photinus pyralis) (UniProt P08659)
# Sequence of UniProt P08659 (P08659 whole entry, looked up): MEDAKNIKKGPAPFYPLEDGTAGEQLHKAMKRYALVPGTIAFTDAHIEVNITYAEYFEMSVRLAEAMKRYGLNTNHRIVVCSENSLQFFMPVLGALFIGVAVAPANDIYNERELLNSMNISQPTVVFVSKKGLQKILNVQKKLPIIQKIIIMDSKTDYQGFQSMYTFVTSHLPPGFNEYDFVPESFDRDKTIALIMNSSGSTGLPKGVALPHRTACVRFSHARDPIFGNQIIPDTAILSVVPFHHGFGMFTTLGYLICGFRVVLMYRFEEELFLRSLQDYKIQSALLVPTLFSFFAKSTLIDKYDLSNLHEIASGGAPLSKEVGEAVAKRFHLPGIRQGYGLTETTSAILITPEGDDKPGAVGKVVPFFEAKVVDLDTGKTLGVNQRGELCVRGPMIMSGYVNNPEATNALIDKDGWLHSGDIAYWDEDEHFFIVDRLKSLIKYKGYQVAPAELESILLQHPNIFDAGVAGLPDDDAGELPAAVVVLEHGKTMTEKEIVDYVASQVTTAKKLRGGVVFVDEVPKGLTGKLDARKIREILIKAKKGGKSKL
# Experiment: qHTS profiling assay for firefly luciferase inhibitor/activator using purifed enzyme and Km concentrations of substrates (counterscreen for miR-21 project); also: nearly all actives have a fitted effect of over 55% in size;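 as to activity change, negative = inhibition: plate controls were vehicle for no effect and reference inhibitor for full effect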
# Details: purified FLuc, luminescence inhibition; series mostly up to 57.5 µM; activity change, negative = inhibition: at the top concentration
# Summary of the method: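 Biochemical qHTS of compounds, final roughly 60 µM downward over six points, against 10 nM purified firefly luciferase using Km concentrations of substrates (10 uM D-luciferin, 10 uM ATP) in Tris acetate pH 7.5 buffer; luminescence output.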
# Potency is read from the fitted curve at half-maximal effect; tags tell the direction and shape of the fitted curve.
Structure (SMILES),"activity change, negative = inhibition",Potency
Cc1ccc(Cl)cc1NC(=O)C1CCCN(S(=O)(=O)c2c(C)noc2/C=C/N(C)C)C1 (centres undefined),inactive: -5.93%,
O=S(=O)(Nc1ccc(Cl)cc1)c1ccc(N2CCOCC2)c(NC(=S)NC2CC2)c1,,"inconclusive: 21.3 µM [inhibitor, partial curve, poor fit]"
Cc1ccsc1C1Nc2ccccc2-c2nc3ccccc3n21 (centres undefined),,"inconclusive: 10.7 µM [inhibitor, partial curve]"
Nc1nnc(SCC(=O)NCC(=O)Nc2ccc(F)c(F)c2F)s1,inactive: -0.673%,
Cc1ccc(-c2cc(C(=O)NCCc3ccccc3)c3ccccc3n2)cc1C,,active: 8.49 µM
CCCNS(=O)(=O)c1ccc(CCC(=O)N2CCCC2)cc1,,"inconclusive: 0.0135 µM [inhibitor, partial curve, poor fit]"
COCC(=O)n1nc(NCc2ccc(OC)cc2)nc1NCc1ccc(OC)cc1,inactive: -15%,
COC(=O)c1ccc(C(=O)Nc2ccc(N)cc2N)cc1,,"inconclusive: 26.9 µM [inhibitor, partial curve, poor fit]"
COc1ccccc1-c1cc(C(=O)N2CCOCC2)no1,,active: 13.5 µM
O=C(c1ccc(CSc2nc3ccncc3n2Cc2ccccc2F)cc1)N1CCCCC1,,"inconclusive: 16.9 µM [inhibitor, partial curve]"
CC(=O)c1cnc2cc(-c3ccc(C)cc3)nn2c1C,,active: 3.38 µM
CCOc1ccccc1Nc1sc(C(=O)c2ccc(Cl)cc2)c(N)c1C#N,inactive: -0.775%,
CCCOc1cccc(-c2nnc(N)s2)c1,,"inconclusive: 23.9 µM [inhibitor, single point]"
O=C(NCc1ccco1)C1CCCN1C(=O)Nc1ccccc1Cl (centres undefined),inactive: -12%,
O=C1CCCN1C(=O)CSc1ccc2ccccc2n1,,"inconclusive: 37.9 µM [inhibitor, partial curve, poor fit]"
Cc1cc(Cn2nc(-c3ccccc3)cc2C(=O)NCc2cccs2)on1,inactive: 2.84%,
CCOC(=O)c1ccccc1NC(=O)c1sc2ncn(CC)c(=O)c2c1C,inactive: -0.948%,
COc1cccc(-c2nnc3n2N=C(c2cc(OC)ccc2OC)CS3)c1,inactive: -6.93%,
CSc1ccccc1NC(=O)C1CC(c2ccccc2Cl)=NO1 (centres undefined),,"inconclusive: 37.9 µM [inhibitor, single point]"
COC(=O)C1CN(C(=O)COc2ccc(Cl)cc2Cl)c2ccccc2O1 (centres undefined),,active: 19 µM
COc1ccc(OCc2cc(C(=O)N3CCCCCCC3)no2)c(Cl)c1,,"inconclusive: 26.9 µM [inhibitor, single point]"
CCCCCCCCS(=O)c1sc2nc(C)cc(C)c2c1N (centres undefined),,"inconclusive: 30.1 µM [inhibitor, partial curve, poor fit]"
O=C(CS(=O)(=O)c1ccccc1)c1ccc2c(c1)OCCO2,,active: 6.01 µM
CCCc1cc(=O)[nH]c(SCc2nc(-c3ccc(OC)cc3)no2)n1,,"inconclusive: 21.3 µM [inhibitor, partial curve]"
CC(=O)c1cccc(NC(=O)c2ccc(-c3ccccc3[N+](=O)[O-])o2)c1,,active: 3.38 µM

Structure (SMILES),"activity change, negative = inhibition",Potency
Cc1c(OCc2ccccc2)cccc1OCc1ccccc1,,"inconclusive: 26.9 µM [inhibitor, single point]"
CCc1ccc2c(CC(=O)Nc3cccc(S(=O)(=O)N4CCOCC4)c3)coc2c1,,"inconclusive: 23.9 µM [inhibitor, partial curve, poor fit]"
O=C(NNC(=O)c1cc(-c2ccc(Cl)cc2)nc2ccccc12)c1csc(N2CCOCC2)n1,,"inconclusive: 23.9 µM [inhibitor, single point]"
CC1=C(C(=O)Nc2cccc(C(F)(F)F)c2)C(c2ccccn2)n2ncnc2N1 (centres undefined),inactive: -1.87%,
CCCCOc1cccc(-c2nnc(N)s2)c1,,"inconclusive: 13.5 µM [inhibitor, partial curve, poor fit]"
Cc1ccc(NC(=O)c2ccccc2SCC(=O)N2CCCC2)cc1S(=O)(=O)N(C)C,,"inconclusive: 21.3 µM [inhibitor, partial curve, poor fit]"
Cc1ccc(S(=O)(=O)N2CCCc3cc(NC(=O)c4ccc(C(C)(C)C)cc4)ccc32)cc1,inactive: -1.27%,
Cc1ccc(NC(=O)CSc2n[nH]c(-c3ccco3)n2)c(C)c1,,"inconclusive: 30.1 µM [inhibitor, partial curve, poor fit]"
O=C(/C=C/c1ccc(-c2ccccc2[N+](=O)[O-])o1)c1ccc(F)cc1,,active: 13.5 µM
O=C(N/N=C/c1cccc([N+](=O)[O-])c1)c1ccc2nc[nH]c2c1,,"inconclusive: 37.9 µM [inhibitor, single point]"
CCCn1c2ccccc2c2cnn(CC(=O)NCCc3cc(OC)ccc3OC)c(=O)c21,,"inconclusive: 8.49 µM [inhibitor, partial curve, poor fit]"
COc1ccc(NC(=O)CSc2ccc([N+](=O)[O-])cc2)cc1S(=O)(=O)N1CCOCC1,,"inconclusive: 21.3 µM [inhibitor, partial curve, poor fit]"
COc1ccc2oc(=O)c(-c3nc4ccccc4o3)cc2c1,,active: 5.36 µM
Cc1cc(C)cc(NC2=C(N)C(=O)c3ccccc3C2=O)c1,,active: 15.1 µM
O=C(OCc1ccc(F)cc1Cl)c1ccccn1,,"inconclusive: 21.3 µM [inhibitor, partial curve, poor fit]"
COc1ccc(CC(=S)NCCc2ccccc2)cc1,,"inconclusive: 26.9 µM [inhibitor, single point]"
O=C(/C(=C/O)N=Nc1ccccc1Cl)c1ccccc1,,active: 21.3 µM
COc1cccc2cc(C(=O)NC(C)C3CCCO3)c(=O)oc12 (centres undefined),,"inconclusive: 21.3 µM [inhibitor, single point]"
CCn1c(C)nc2cc(C(=O)NNC(=O)c3ccc(C)cc3)ccc21,,"inconclusive: 11.2 µM [inhibitor, partial curve, poor fit]"
NC(=O)c1cc2c3ccccc3ccn2c1-c1ccccc1,,active: 21.3 µM
CCCCn1c(CCNC(=O)c2cccs2)nc2ccccc21,inactive: 4.06% [at 2.3 µM],
COc1ccc2oc(C(=O)OCC(=O)Nc3cc(S(=O)(=O)N4CCOCC4)ccc3C)c(C)c2c1,,"inconclusive: 8.49 µM [inhibitor, partial curve, poor fit]"
COc1ccccc1CNC(=O)[C@H](C)NC(=O)C1CCN(C(=O)[C@@H](N)CCSC)CC1,inactive: -2.89%,
Cc1ccc(-c2nc(NCCN(C)C)c3ccccc3n2)cc1,,"inconclusive: 37.9 µM [inhibitor, partial curve, poor fit]"
CCc1ccc(-c2ccc3nnc(SCC(=O)Nc4cccc(C(C)=O)c4)n3n2)cc1,inactive: -1.59%,

Structure (SMILES),"activity change, negative = inhibition",Potency
CCOC(=O)c1c(C)[nH]c(C(=O)C(C)Cl)c1C (centres undefined),inactive: 0.519%,
COc1ccccc1CNC(=O)COc1ccc(C)cc1,inactive: 2.23%,
CNC(=O)c1cc2c(s1)CCCCCC2,,active: 13.5 µM
Cc1nc2cccnc2n1C1CCN(S(=O)(=O)c2ccc(C(C)C)cc2)CC1,inactive: -19.7%,
c1ccc(-c2cn(-c3ccccc3)c3[n+]2CCCS3)cc1,inactive: -0.274%,
O=c1oc(-c2cccs2)nc2sc3c(c12)CCC3,,"inconclusive: 1.2 µM [inhibitor, partial curve, poor fit]"
COc1ccc(-c2noc(CN(C)C(=O)c3ccoc3C)n2)cc1OC,inactive: 1.29%,
Cc1c(NC(=O)C(C)N2C(=O)C3CCCCC3C2=O)c(=O)n(-c2ccccc2)n1C (centres undefined),inactive: 0.806%,
CC/C(C)=N\N=C\c1c(O)n(CC)c2cc(C3=NNC(=O)CC3)ccc12,,"inconclusive: 23.9 µM [inhibitor, single point]"
COc1cc(NS(=O)(=O)c2ccc(NC(=O)c3ccc(C(C)=O)cc3)cc2)nc(OC)n1,,"inconclusive: 13.5 µM [inhibitor, partial curve, poor fit]"
CCOc1ccc(-c2cc(N3C(=O)Nc4ccccc4N3O)n[nH]2)cc1,,active: 6.75 µM
COc1ccc(C(C)=O)c(Oc2ccc(S(=O)(=O)N3CCOCC3)cn2)c1,inactive: 6.35%,
CN(C)c1nccc(N(Cc2ccccc2)Cc2ccccc2)c1C#N,,"inconclusive: 26.9 µM [inhibitor, partial curve, poor fit]"
CCOc1ccc(-c2cc(CCCC(=O)NCCc3ccc(OCC)c(OCC)c3)no2)cc1,,active: 9.53 µM
CCCOC(=O)c1ccc(Nc2nc3ccccc3nc2-n2nc(C)cc2C)cc1,inactive: 0.503%,
O=C1C2C3C=CC(CC3)C2C(=O)N1c1ccccc1F (centres undefined),,"inconclusive: 23.9 µM [inhibitor, partial curve, poor fit]"
CCCOc1ccc(-c2c(=O)n(OCC(=O)OCC)c3ccccc3[n+]2[O-])cc1,,"inconclusive: 21.3 µM [inhibitor, partial curve]"
COc1cc(NC(=O)C2CC(c3ccccc3Cl)=NO2)cc(OC)c1OC (centres undefined),inactive: 2.09%,
Cc1cc2occ(CC(=O)OCC(=O)Nc3sc4c(c3C#N)CCC(C)C4)c2cc1C (centres undefined),,"inconclusive: 21.3 µM [inhibitor, single point]"
Cc1ccc2nc(-c3sc4nc(C)cc(C)c4c3N)[nH]c2c1,,active: 0.338 µM
c1cncc(-c2nnc(-c3cccnc3)nn2)c1,,"inconclusive: 23.9 µM [inhibitor, single point]"
COc1ccc(COc2ccc3ccc(=O)oc3c2)cc1,,active: 10.7 µM
CCCSc1nc2cc(C)c(C)cc2n1CC(O)CO (centres undefined),,"inconclusive: 21.3 µM [inhibitor, single point]"
Cc1cc(C(=O)N/N=C/c2cccc(OC(=O)c3cccc(Br)c3)c2)n[nH]1,,"inconclusive: 13.5 µM [inhibitor, partial curve, poor fit]"
